Laboratory results reported in PubChem BioAssay AID504706 (National Center for Advancing Translational Sciences (NCATS), 2011).
“And” between values parts separate entries of the source, which are not always exact repeats. Identical values can stand only once. About 200 (0.062%) of roughly 320,000 compounds were called active. Inconclusive means that the source gave no clear call. Such entries were picked first, then a sample of the others. The call rests on the fitted dose curve; in most records, active means well fitted activation curve with a large enough effect; inconclusive means small, poorly fitted or top-dose-only effect; inactive means no such curve, though single readings can be large or run the other way. Potencies beside an inconclusive call are fits to weak or partial responses and may not hold up.

Assay: qHTS assay for re-activators of p53 using a Luc reporter; further: nearly all actives have a fitted effect of over 45% in size
Conditions: H1299 p53-A138V BP100-luciferase reporter, luminescence, 24 h; series mostly up to 92.2 µM
How it was run: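 H1299 (p53-null), stable ts p53-A138V + BP100-Luc; 1000 cells/well, Opti-MEM/10% FBS; cpd 4 pt, 1:5; 24 h, 37 deg C, 5% CO2; detection reagent 10 min RT; luminescence.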
Potency means the concentration at half of the fitted maximal effect; tags describe the fitted curve by direction and shape.

SMILES	Potency
COCCC(=O)N1CCC(C(=O)Nc2ccc(Oc3ccccc3)nc2)CC1	inconclusive: 50.1 µM [activator, partial curve, poor fit]
CCOc1cccc2cc(-c3csc(NC(=O)CCC(=O)NCCN4CCCCC4C)n3)c(=O)oc12 (stereo not drawn)	inconclusive: 56.2 µM [activator, partial curve, poor fit]
O=C(c1ccccc1)c1ccc(-c2ccc(O)cc2)cc1	inconclusive: 17.8 µM [activator, full curve, poor fit]
CCN1CCN(c2cc(C)c3cc(NC(=O)c4ccccc4F)ccc3n2)CC1	inconclusive: 8.91 µM [activator, partial curve, poor fit]
COc1ccc(C2=CC(=O)C[C@H](c3ccc4c(c3)OCO4)C2)cc1	inconclusive: 6.31 µM [activator, partial curve, poor fit]
CC(C)c1ccc2oc(=O)cc(CN3CCN(c4ccc(F)cc4)CC3)c2c1	inconclusive: 8.91 µM [activator, partial curve, poor fit]
COc1cc(C(=O)Nc2nnc(C)s2)cc(OC)c1OC	inactive
COC(=O)Cc1c(C)c2ccc(OC(=O)c3ccccc3)cc2oc1=O	inconclusive: 70.8 µM [activator, single point]
O=C1CC(=Nc2ccccc2)NN1c1ccccc1	inactive
COc1ccccc1NC(=O)C(C)NS(=O)(=O)c1ccccc1 (stereo not drawn)	inconclusive: 70.8 µM [activator, single point]
Cc1cccc(NCc2n[nH]c(=S)n2-c2ccccc2)c1	inactive
CC(C)Cc1ccc(/C=C/C(=O)NC2CC2)cc1	inconclusive: 44.7 µM [activator, partial curve, poor fit]
COc1nc(-c2ccc(Cl)cc2)ccc1-c1noc(-c2ccco2)n1	inactive
COCCn1c(=S)[nH]c2cc(C(=O)N3CC(C)CC(C)C3)ccc2c1=O (stereo not drawn)	inactive
C/C(=N\NC(=O)OC(C)(C)C)c1cccc([N+](=O)[O-])c1	inconclusive: 7.08 µM [activator, partial curve, poor fit]
Clc1ccccc1-c1nc(-c2ccncc2)no1	inconclusive: 10 µM [activator, partial curve, poor fit] and inconclusive: 11.2 µM [activator, partial curve, poor fit]
CCC(=O)Nc1ccc(C2C(=O)c3ccccc3C2=O)cc1	inconclusive: 22.4 µM [activator, single point]
CCN(CC)c1ccc(NC(=O)Cn2cc3c(n2)CCC(C)C3)c(C)c1 (stereo not drawn)	inactive
Cc1ccc(N2CS(=O)(=O)/C(=C/N(C)C)C2=O)cc1	inconclusive: 31.6 µM [activator, partial curve, poor fit]
O=C(Nc1nnc(-c2ccccc2)o1)NC1CCCCC1	inactive
CCc1ccc(C(C(=O)NC2CCCC2)N(C(=O)c2csnn2)C2CC2)cc1 (stereo not drawn)	inactive
C/C(CC(=O)Nc1ccc(C)c(Cl)c1)=N\NC(=O)c1ccccn1	inconclusive: 10 µM [activator, full curve, poor fit]

SMILES	Potency
CCCCCC(=O)Nc1nc2ccccc2[nH]1	inconclusive: 7.94 µM [activator, full curve, poor fit]
COc1ccc(C(=O)N/C(=C\c2ccco2)C(=O)NCc2ccco2)cc1	inactive
CC(CC(=O)Nc1nc2ccccc2[nH]1)c1ccccc1 (stereo not drawn)	inconclusive: 63.1 µM [activator, partial curve, poor fit]
N/C(=N\OC(=O)c1cc([N+](=O)[O-])ccc1Cl)c1cccnc1	inconclusive: 11.2 µM [activator, full curve, poor fit]
CCc1ccc2nc(N=C(N)N)nc(C)c2c1	inconclusive: 70.8 µM [activator, single point]
O=C(Nc1nc2cc3c(cc2s1)OCO3)c1ccco1	inactive
Nc1c(C(=O)NCc2ccco2)sc2nc(N3CCOCC3)c3c(c12)CCCC3	inactive
O=[N+]([O-])c1ccc(-c2cn(-c3ccccc3)c(=S)[nH]2)cc1	inconclusive: 70.8 µM [activator, partial curve, poor fit]
COc1ccccc1NS(=O)(=O)c1ccc2oc(SCc3ccc(C#N)cc3)nc2c1	inactive
Nc1ccccc1C(=O)Nc1ccc(Cl)cc1Cl	inconclusive: 20 µM [activator, full curve, poor fit]
Cc1ccc(C(=O)CN2C(=O)NC3(CCCCC3C)C2=O)s1 (stereo not drawn)	inconclusive: 12.6 µM [activator, partial curve, poor fit]
Cc1ccc(N2C(=O)SC(N(CC(=O)O)c3cccc(C)c3)C2=O)cc1 (stereo not drawn)	inconclusive: 28.2 µM [activator, full curve, poor fit]
C/C(=N\NC(=O)c1ccc(O)cc1)c1ccc2c(c1)OCCO2	inconclusive: 14.1 µM [activator, single point]
O=C(Nc1ccc(Cl)cc1)c1ccc(-c2ccccn2)s1	inactive
CC(=O)Nc1cccc(C(=O)N/N=C/c2ccc(F)cc2)c1	inconclusive: 3.98 µM [activator, full curve, poor fit]
O=C(OCC(=O)N1CCc2ccccc21)C1=COCCO1	inconclusive: 12.6 µM [activator, full curve, poor fit]
COc1ccc(NC(=O)Nc2ccc(Cc3ccncc3)cc2)cc1OC	inconclusive: 7.94 µM [activator, partial curve, poor fit]
COc1ccc(C(=O)COC(=O)C(O)c2ccccc2)c(OC)c1 (stereo not drawn)	inconclusive: 12.6 µM [activator, full curve, poor fit]
O=C(Nc1cccc(F)c1)Nc1ccnn1C1CCN(C(=O)c2ccccn2)CC1	inconclusive: 50.1 µM [activator, single point]
Cc1ccccc1C(=O)Nc1cccc(C#N)c1	inconclusive: 28.2 µM [activator, partial curve, poor fit]
O=C(Nc1nc2ccccc2s1)c1cc2c(s1)-c1ccccc1OC2	inactive
